According to PubChem BioAssay AID1963576 (National Center for Advancing Translational Sciences (NCATS), 2024):
The whole screen tested about 46,000 compounds, of which about 60 (0.1%) were called active. Roughly 3% stayed inconclusive and do not appear here. The call rests on the fitted dose curve; in most records, active means well fitted inhibition curve with a large enough effect; inconclusive means small, poorly fitted or top-dose-only effect; inactive means no such curve, though single readings can be large or run the other way. The list shows a part of the results.

test: Primary qHTS assay for Inhibitors of ovarian cancer metastasis using an organotypic tumor microenvironment (TME) model.; further: nearly all actives have a fitted effect of over 65% in size;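 on activity change, negative = inhibition: plate controls were DMSO wells for no effect and tomatine positive control wells for full effect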; conditions: SKOV3ip1-GFP adhesion/invasion on 3D omental model, fluorescence; series mostly up to 45.8 µM; activity change, negative = inhibition: at the top concentration
Procedure, shortened: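 qHTS, 4-pt dose (0.36-46 umol/L); SKOV3ip1-GFP, 1,200 cells/well, no FBS; primary omental fibroblast/mesothelial co-culture 48 h pre-grown; 2 h RT + 16 h 37 C; PBS wash, 4% PFA; GFP count 488/509 nm.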

SMILES	activity change, negative = inhibition	outcome
CCCCNC(=O)c1cc2n(n1)CCCN(Cc1ccc(C)cc1)C2=O	inactive: 21.3%	
Cc1ccc(N2CC(NC(=O)c3cc4ccccc4o3)CC2=O)cc1 (configuration not stated)	inactive: -7.83%	
Cc1ccc(S(=O)(=O)CC(=O)N2CCN(c3nc4c(F)cccc4s3)CC2)cc1		inactive
COc1ccc(CNC(=O)CCc2c(C)c3cc4c(C)coc4c(C)c3oc2=O)cc1OC		inactive
CCCc1nn2c(=O)cc(COC(=O)c3ccc(NC(=O)COc4ccccc4)cc3)nc2s1		inactive
N#Cc1ccccc1NS(=O)(=O)c1ccc(N2CCCCS2(=O)=O)cc1	inactive: 16.1%	
CN1C(=O)c2ccccc2Sc2ccc(NC(=O)c3ccc(C(F)(F)F)cc3)cc21	inactive: -8.92%	
COc1ccc(-c2nc3scc(CCNS(=O)(=O)c4ccc(F)cc4C)n3n2)cc1	inactive: -28.7%	
COC(=O)c1cc2oc3ccccc3c2n1Cc1ccc(Cl)cc1	inactive: -11.7%	
CCn1c2c(c(=O)n3ncc(C(=O)N4CCN(c5ccc(Cl)cc5)CC4)c13)CN(Cc1ccc(OC)cc1)CC2	inactive: 2.76%	
CCC(Oc1ccc(F)cc1)C(=O)Nc1c(C(=O)c2ccc(C)cc2)oc2ccccc12 (configuration not stated)	inactive: -7.68%	
CCn1cc(C(=O)N2CCN(c3ccccc3)CC2)c(=O)c2cc(S(=O)(=O)N3CCOCC3)ccc21	inactive: 7.77%	
COc1ccc(NC(=O)c2ccc3nc(C(C)C)oc3c2)cc1OC	inactive: 8.65%	
Cc1ccc(Cn2c(CO)cnc2SCC(=O)Nc2ccc(C)c(Cl)c2)cc1	inactive: 10.7%	
COc1ccc(N(C)C(=O)c2cn(C)c(=O)c3cc(OC)c(OC)cc23)cc1		inactive
CC(C)COc1ccc(C(=O)N2CCN(CCc3ccncc3)CC2)cc1	inactive: 8.28%	
O=C1CSC2(C(=O)N(Cc3cccc(F)c3)c3ccccc32)N1c1cccc(C(F)(F)F)c1 (configuration not stated)	inactive: 52.8%	
CC(C)(F)C[C@H](N[C@@H](c1ccc(-c2ccc(S(C)(=O)=O)cc2)cc1)C(F)(F)F)C(=O)NC1(C#N)CC1	inactive: -7.71%	
CCOC(=O)c1[nH]c(C)c(CCC(=O)NCc2ccc(CC)cc2)c1C	inactive: 5.59%	
CCN(CC)CCNC(=O)c1cc2c(=O)n(C)c3cc(Cl)ccc3c2s1	inactive: -4.78%	
COc1ccc(Nc2cc(C(=O)NCCCN3CCN(c4ccccc4F)CC3)c3ccccc3n2)c(OC)c1	inactive: -26.9%	
Cc1ccc(-c2ccc(=O)n(CCC(=O)NCCc3ccccc3)n2)cc1		inactive
COc1cccc(CN2c3ccccc3-c3nc(SCC(=O)Nc4ccccc4Cl)ncc3S2(=O)=O)c1	inactive: 0.707%	
CON=C(C(=O)N[C@@H]1C(=O)N2C(C(=O)OCOC(=O)C(C)(C)C)=C(C=Cc3scnc3C)CS[C@H]12)c1csc(N)n1	inactive: 25.4%	

SMILES	activity change, negative = inhibition	outcome
Cc1cccc(N2CCN(C(=O)C3CCN(S(=O)(=O)c4c(C)noc4C)CC3)CC2C)c1 (configuration not stated)		inactive
COc1ccc(N(Cc2cccs2)C(=O)c2ccc(OC)c(Cl)c2)cc1	inactive: -12.8%	
CCCC(=O)OCc1cnc(C)c2oc(=O)c(C(=O)Nc3cccc(C(F)(F)F)c3)cc12		inactive
COc1ccc(NC(=O)Cn2cc(S(=O)(=O)c3ccccc3)c(=O)c3cc4c(cc32)OCO4)cc1	inactive: 8.17%	
COC(=O)c1ccc(NC(=O)CC2C(=O)N(c3ccccc3)C(=O)N2Cc2ccc(F)cc2)cc1 (configuration not stated)	inactive: 2.53%	
CCC(=O)Nc1ccccc1-c1nc2ccccc2n(CC(=O)Nc2ccccc2OC)c1=O	inactive: -4.27%	
COc1cccc(N2CCN(C(=O)C3CCN(S(=O)(=O)c4c(C)noc4/C=C/c4ccccc4F)CC3)CC2)c1		inactive
Cc1c(C(=O)Nc2ccccc2)sc2nc(-c3cc4cc(Cl)ccc4oc3=O)[nH]c(=O)c12	inactive: -3.47%	
CCCS(=O)(=O)c1c(S(=O)(=O)CCC)c2cc(C(C)(C)C)ccn2c1C(=O)c1ccccc1	inactive: 3.41%	
O=C(Cn1ccn(-c2ccc(F)cc2)c(=O)c1=O)Nc1ccc(F)cc1	inactive: -3.49%	
Cc1cccc(C)c1NC(=O)C(NS(=O)(=O)c1cccs1)c1ccccc1 (configuration not stated)	inactive: 7.87%	
O=C(NCCc1ccc(Cl)cc1)c1ccc(CS(=O)(=O)c2ccc(Cl)cc2)o1	inactive: -15.7%	
O=C(CSc1nnc(-c2cccs2)o1)Oc1ccccc1Cl	inactive: 4.19%	
CC(C)(C)C(=O)NCC(c1ccc2c(c1)OCO2)N1CCOCC1 (configuration not stated)		inactive
COc1cccc(N2CCN(C(=O)c3cc4c(s3)-c3ccccc3OC4)CC2)c1	inactive: -7.13%	
CCN(CC)C(=O)c1sc2c(c1C)c(=O)n(CCc1ccccc1)c(=O)n2Cc1cc(C)ccc1C	inactive: 3.29%	
COc1cc(CNC(=O)c2ccc3c(c2)c(C)c(C)n3Cc2cccc(C)c2)cc(OC)c1OC	inactive: 0.176%	
O=C(Cn1ncc2c3ccccc3n(Cc3cccc(Cl)c3)c2c1=O)Nc1ccc(F)cc1F	inactive: -0.82%	
COC(=O)c1cc2oc3ccccc3c2n1Cc1ccccc1Cl		inactive
COc1ccccc1CNC(=O)CCCCn1c(=O)c2ccccc2n(CC(=O)Nc2cccc(Cl)c2)c1=O		inactive
CCOc1ccc(/C=C/c2nc(C#N)c(N3CCC(C)CC3)o2)cc1		inactive
CCc1ccc(Sc2cc(C(=O)NCCCN3CCC(C)CC3)c3ccccc3n2)cc1	inactive: 20.7%	
Cc1cccc(C)c1Nc1c(-c2ccsc2)nc2cccc(C)n12	inactive: 8.07%	
